Data reported in article PMC4336329 (PLoS ONE, 2015).
Among all 310,000 compounds or so, about 2,200 (0.71%) showed an effect of 50% or more. Effects have a minus sign here. Some of the results follow.

target: human ether-à-go-go-related gene (hERG) potassium channel (human, UniProt Q12809); experiment: primary screen, population patch clamp on CHO cells stably expressing hERG
Sequence (Q12809 whole entry, looked up): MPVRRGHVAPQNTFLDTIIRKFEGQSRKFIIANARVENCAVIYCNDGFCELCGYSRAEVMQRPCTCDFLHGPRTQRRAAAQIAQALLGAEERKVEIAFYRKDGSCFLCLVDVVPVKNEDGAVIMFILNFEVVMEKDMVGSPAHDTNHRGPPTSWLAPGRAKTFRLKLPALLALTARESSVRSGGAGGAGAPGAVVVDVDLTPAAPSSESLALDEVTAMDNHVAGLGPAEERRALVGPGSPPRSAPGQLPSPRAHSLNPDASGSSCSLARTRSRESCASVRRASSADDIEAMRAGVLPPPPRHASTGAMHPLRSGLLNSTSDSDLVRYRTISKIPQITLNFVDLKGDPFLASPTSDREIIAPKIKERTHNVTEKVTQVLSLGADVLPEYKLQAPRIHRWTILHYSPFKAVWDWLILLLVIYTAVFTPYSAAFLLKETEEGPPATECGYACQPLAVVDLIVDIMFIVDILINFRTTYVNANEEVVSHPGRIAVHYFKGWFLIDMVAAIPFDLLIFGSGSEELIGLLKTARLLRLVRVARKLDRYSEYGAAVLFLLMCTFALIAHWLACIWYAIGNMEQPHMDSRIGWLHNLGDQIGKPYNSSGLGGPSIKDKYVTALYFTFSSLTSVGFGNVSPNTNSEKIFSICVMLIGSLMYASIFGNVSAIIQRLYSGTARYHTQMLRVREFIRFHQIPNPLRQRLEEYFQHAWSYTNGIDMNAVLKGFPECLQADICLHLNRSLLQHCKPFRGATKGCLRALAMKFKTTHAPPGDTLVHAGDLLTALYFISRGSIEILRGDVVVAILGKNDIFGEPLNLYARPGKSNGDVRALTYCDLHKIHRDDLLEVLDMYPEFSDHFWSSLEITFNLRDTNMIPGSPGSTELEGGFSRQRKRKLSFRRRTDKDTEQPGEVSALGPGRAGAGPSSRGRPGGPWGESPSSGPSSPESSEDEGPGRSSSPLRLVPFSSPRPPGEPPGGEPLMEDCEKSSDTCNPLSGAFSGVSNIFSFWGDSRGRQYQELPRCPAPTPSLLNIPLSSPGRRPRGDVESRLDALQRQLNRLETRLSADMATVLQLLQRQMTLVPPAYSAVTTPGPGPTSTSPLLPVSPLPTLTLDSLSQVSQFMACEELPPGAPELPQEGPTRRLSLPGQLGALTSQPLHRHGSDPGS

| Structure (SMILES) | hERG current change (%, negative = inhibition) at 1uM |
| --- | --- |
| CCN(C(=O)COC(=O)/C=C/c1ccc(OC(F)F)c(OC)c1)C1CCS(=O)(=O)C1 (centres unmarked) | 8.13% |
| Cc1ccc(S(=O)(=O)CCC(=O)OCC(=O)N(Cc2ccccc2)C(C)C)cc1 | -3.08% |
| CCc1nnc(NC(=O)c2ccc(S(=O)(=O)N3CCCC(C)C3)cc2)s1 (centres unmarked) | 12.2% |
| CC(/C=N/NC(=O)c1cc(-c2ccc(C)o2)[nH]n1)=C\c1ccccc1 | 0.281% |
| Cc1cccc(Nc2nnc(SCC(=O)Nc3ccc(C(=O)O)cc3)s2)c1 | 8.69% |
| CCn1c(SCc2ccc(Cl)cc2)nc2nc3c(cc2c1=O)CCCC3 | 15.4% |
| O=C(O)c1ccc(CN2C(=O)c3ccc(C(=O)O)cc3C2=O)cc1 | 0.521% |
| N=c1sccn1CC(=O)Nc1cc(S(=O)(=O)N2CCCCC2)ccc1Cl | -7.38% |
| COc1ccc(NC(=O)C(=O)c2cn(CC(=O)N3CCOCC3)c3ccccc23)cc1OC | 11.6% |
| CCNc1ccc(S(=O)(=O)N(C)C)cc1NCC(=O)Nc1c(F)cccc1F | -5.5% |
| CC(=O)c1ccc(NC(=O)Nc2cccnc2)cc1 | 9.26% |
| COc1ccc(OC)c(S(=O)(=O)Nc2cccc3ccc(O)cc23)c1 | 10.8% |
| CN(C)c1ccc(CNS(=O)(=O)c2csc(C(N)=O)c2)cc1 | 13% |
| CCOC(=O)C(=NC(C)C)NNc1cc(Cl)ccc1Cl | 1.47% |
| COc1ccc(Br)cc1CN(C)CC(=O)Nc1cccc(S(N)(=O)=O)c1 | 6.65% |
| COc1cccc(C(C(=O)NC2CCCC2)N(C(=O)c2ccco2)c2ccc(C(C)=O)cc2)c1OC (centres unmarked) | 6.86% |
| COc1ccc(C(=S)Nc2ccc(C)cc2)cc1 | 3.78% |
| C=CC(C)(C)c1c(O)c(CC=C(C)C)c(O)c2c(=O)c3ccc(O)c(O)c3oc12 | 17.8% |
| O=C(N/N=C/c1ccccc1O)C1(O)c2ccccc2-c2ccccc21 | 3.86% |
| CCCNC(=O)C(Cc1ccccc1)NC(=O)c1ccccn1 (centres unmarked) | 12.1% |
| C=CCOc1ccc(CNCc2cccnc2)cc1.Cl | 10.6% |
| CCc1cc(-c2[nH]ncc2-c2ccc([N+](=O)[O-])cc2)c(O)cc1OC | 12.5% |

| Structure (SMILES) | hERG current change (%, negative = inhibition) at 1uM |
| --- | --- |
| CC(=O)Nc1ccc(NC(=O)c2ccccc2N(C)S(C)(=O)=O)cc1 | 7.62% |
| CCOC(=O)/C(=C\C=C1/Sc2ccccc2N1CC)C(C)=O | 8.41% |
| COc1ccccc1OCCNC(=O)C(CCSC)NC(=O)COc1ccccc1 (centres unmarked) | 7.39% |
| CCC(C(=O)OCCN(CC)CC)c1ccccc1.O=C(O)CC(O)(CC(=O)O)C(=O)O (centres unmarked) | 11.6% |
| CCCN(CC(=O)Nc1ccccc1C)C(=O)c1ccc(N2CCCCC2)c([N+](=O)[O-])c1 | 6.11% |
| CCOn1c(=O)c(-c2cccc(Br)c2)[n+]([O-])c2ccccc21 | 12.9% |
| Cc1cc(C)cc(C(=O)Nc2ccc(N3CCN(S(C)(=O)=O)CC3)cc2)c1 | 14.8% |
| COc1ccc(OCC(=O)Nc2ccccc2Cl)cc1 | 13.8% |
| COc1cc(Cl)c(C)cc1NC(=O)CSc1ccc(NC(C)=O)cc1 | 11.1% |
| COCC(=O)N1CCC(n2nccc2NC(=O)CCOc2ccccc2)CC1 | 17.4% |
| COc1cc2c(cc1OC)C(c1cccs1)NCC2 (centres unmarked) | 12.4% |
| CCCn1nc([N+](=O)[O-])c(C(C#N)c2nc3ccccc3o2)c(Cl)c1=O (centres unmarked) | 8.61% |
| CN(C)CC#CCOC(c1ccccc1)c1ccccc1.Cl | 6.65% |
| O=C1CCCCCC1C1(O)C(=O)Nc2ccccc21 (centres unmarked) | -1.16% |
| C#CCOCCOCCOCCNc1nc(N2CCN(C(=O)Cn3cc(CCC[NH+]=C(N)N)nn3)CC2)nc(N2CCN(C(=O)[C@H](CCCC[NH3+])n3cc(CCCC)nn3)CC2)n1.[Cl-] | 9.09% |
| O=C(Nc1ccc(-c2csc(Nc3cccc(C(F)(F)F)c3)n2)cc1)c1cc([N+](=O)[O-])cc(C(F)(F)F)c1 | 5.25% |
| COc1ccc(CCn2c(O)c(C=NCc3ccc4c(c3)OCO4)c(=O)[nH]c2=O)cc1OC | 0.557% |
| COc1cc2c(-c3cc(F)cc(F)c3)c(-c3ccsc3)oc(=O)c2cc1OC | 13.7% |
| CCN1C(=O)/C(=C/c2ccc(N(CC)CC)cc2OC)C(=O)NC1=S | 5.05% |
| COc1ccc(C(=O)Nc2ccc3c(c2)Cc2ccccc2-3)cc1 | 14.1% |
| CN(C)CCNC(=S)Nc1ccc(-c2nc3ccccc3[nH]2)cc1 | 4.55% |
| COc1ccc(-c2noc(-c3ccccc3C(=O)NCc3ccco3)n2)cc1 | 6.75% |

| Structure (SMILES) | hERG current change (%, negative = inhibition) at 1uM |
| --- | --- |
| O=C(NCc1ccc(F)cc1)c1cc2c(s1)CCCC2 | 18.3% |
| Cc1ccc(C(=O)N/C(=C\c2ccc(-c3cccc([N+](=O)[O-])c3)o2)C(=O)NC(C)(C)C)cc1 | 12.1% |
| COc1ccc(NC(=S)Nc2cccc(S(=O)(=O)N3CCCCC3)c2)cc1 | 10.2% |
| O=C(CSc1nnc(-c2ccncc2)o1)NCc1ccc(Cl)cc1 | -6.86% |
| Nc1ccc2ccc3cccc[n+]3c2c1.[O-][Cl+3]([O-])([O-])[O-] | 10.1% |
| O=C1O/C(=C\C(=O)N2CCOCC2)c2ccccc21 | 8.33% |
| CN(C)CCNc1c(N)c(=O)oc2ccccc12 | 5.18% |
| O=C(CN1C(=O)NC2(CCCC2)C1=O)Nc1nc(-c2ccccc2)cs1 | 16.5% |
| COc1cc(C(=O)Oc2ccc3c(c2)OCC3=O)cc(OC)c1OC | 22.4% |
| O=C1c2ccccc2C2=Nc3ccccc3SC(c3cccc(F)c3)C12 (centres unmarked) | 7.97% |
| CCOc1ccccc1CN1CCN(Cc2cc3ccccc3[nH]2)CC1CCO (centres unmarked) | -22.8% |
| NS(=O)(=O)c1ccc(Sc2ccc3ccccc3c2)nc1 | 6.5% |
| Nc1c(C(=O)Nc2ccc(F)cc2)nnn1-c1cccc(C(F)(F)F)c1 | 12.9% |
| Cc1ccc(C(C)C)c(OCC#CCN2CCCC2)c1.O=C(O)C(=O)O | 7.15% |
| CC(C)CC1c2[nH]c3ccccc3c2CCN1C(=O)CCC(=O)N(C)C (centres unmarked) | 15% |
| Cc1ccccc1C(=O)O/N=C(\N)c1ccncc1 | 16.2% |
| C/C(=N\NC(=S)Nc1ccccc1C)c1ccc(O)cc1 | 4.36% |
| Cn1c(SCc2ccccc2)nnc1-c1cccs1 | 9.3% |
| COc1cccc(-c2nc(N3CCCC3)c3ccccc3n2)c1O | 5.97% |
| Cn1c(NC(=O)CCc2ccccc2)cc(=O)n(C)c1=O | 6.58% |
| CCC(C)NC(=O)CCC(=O)Nc1ccc2nc(N3CC(C)CC(C)C3)cc(C)c2c1 (centres unmarked) | -1.08% |
| CCOc1ccc(N2CC(O)=C(c3nc4ccccc4c(=O)[nH]3)C2=N)cc1 | 13% |

| Structure (SMILES) | hERG current change (%, negative = inhibition) at 1uM |
| --- | --- |
| CCCNC(=O)N1[C@H]2CC[C@@H]1C(C(=O)OC)=C(c1ccc(F)cc1F)C2 | 14.9% |
| O=[N+]([O-])c1ccc2c(c1)/C(=N\O)c1ccccc1-2 | 18.4% |
| O=C(CN1c2ccccc2S(=O)(=O)c2ccccc21)NCc1ccccc1 | 12.5% |
| CCOC(=O)/C=C/c1cnn(-c2ccccc2)c1 | 12.4% |
| O=C(Nc1ccc(NC(=O)c2ccco2)cc1)c1ccc2c(c1)OCO2 | 11.7% |
| O=C(CC1(O)C(=O)N(C/C=C/c2ccccc2)c2ccccc21)c1ccccn1 (centres unmarked) | 6.38% |
| Cc1ccc(NC(=O)CSc2nnc(C3CCCCC3)n2N)cc1F | 2.43% |
| Cc1ccc(C)c(OCCn2cc(/C=C(/C#N)C(=O)NCC3CCCO3)c3ccccc32)c1 (centres unmarked) | 16.5% |
| COc1ccc(C(CC(=O)NCC(OC)OC)NS(=O)(=O)c2ccc(Cl)cc2)cc1 (centres unmarked) | 8.3% |
| O=C(CSc1nc(-c2ccco2)cc(C(F)(F)F)n1)N1CCc2ccccc2C1 | 7.98% |
| Cc1nn(-c2ccc(Br)cc2)c(=O)c2ccccc12 | 14.3% |
| COc1cc(NC(=O)C2=COCCO2)c(OC)cc1Cl | 14.1% |
| COc1ccc(NS(=O)(=O)c2cccc3nonc23)c(OC)c1 | -1.12% |
| CN(C)S(=O)(=O)c1ccc(NC(=O)c2ccc(Br)o2)cc1 | -0.166% |
| CN(CCCCN1CCOCC1)Cc1nc(-c2ccc3c(c2)OCO3)no1 | 1.64% |
| O=C(CCn1c(=O)[nH]c2ccsc2c1=O)N1CCN(Cc2ccc3c(c2)OCO3)CC1 | -2.97% |
| CCOC(=O)c1sc(=NC(=O)c2ccc(Br)cc2)n(C)c1C | 11.3% |
| CN(Cc1nc(-c2ccc(Cl)cc2)no1)C(=O)c1ccc2c(c1)OCO2 | 3.99% |
| Cc1c(C(=O)Nc2ccc(Cl)cn2)oc2ccccc12 | 8.02% |
| O=C(/C(=C/c1ccc(Cl)cc1)c1nc2ccccc2[nH]1)c1cccs1 | 6.05% |
